# Assay results: article PMC4336329 (PLoS ONE, 2015)
# About 2,200 (0.71%) of roughly 310,000 compounds showed an effect of 50% or more. Effects have a minus sign here. The list shows a part of the results.
# Biological target: human ether-à-go-go-related gene (hERG) potassium channel (human, UniProt Q12809)
# Assay: primary screen, population patch clamp on CHO cells stably expressing hERG
# human ether-à-go-go-related gene (hERG) potassium channel, sequence (Q12809 whole entry, looked up): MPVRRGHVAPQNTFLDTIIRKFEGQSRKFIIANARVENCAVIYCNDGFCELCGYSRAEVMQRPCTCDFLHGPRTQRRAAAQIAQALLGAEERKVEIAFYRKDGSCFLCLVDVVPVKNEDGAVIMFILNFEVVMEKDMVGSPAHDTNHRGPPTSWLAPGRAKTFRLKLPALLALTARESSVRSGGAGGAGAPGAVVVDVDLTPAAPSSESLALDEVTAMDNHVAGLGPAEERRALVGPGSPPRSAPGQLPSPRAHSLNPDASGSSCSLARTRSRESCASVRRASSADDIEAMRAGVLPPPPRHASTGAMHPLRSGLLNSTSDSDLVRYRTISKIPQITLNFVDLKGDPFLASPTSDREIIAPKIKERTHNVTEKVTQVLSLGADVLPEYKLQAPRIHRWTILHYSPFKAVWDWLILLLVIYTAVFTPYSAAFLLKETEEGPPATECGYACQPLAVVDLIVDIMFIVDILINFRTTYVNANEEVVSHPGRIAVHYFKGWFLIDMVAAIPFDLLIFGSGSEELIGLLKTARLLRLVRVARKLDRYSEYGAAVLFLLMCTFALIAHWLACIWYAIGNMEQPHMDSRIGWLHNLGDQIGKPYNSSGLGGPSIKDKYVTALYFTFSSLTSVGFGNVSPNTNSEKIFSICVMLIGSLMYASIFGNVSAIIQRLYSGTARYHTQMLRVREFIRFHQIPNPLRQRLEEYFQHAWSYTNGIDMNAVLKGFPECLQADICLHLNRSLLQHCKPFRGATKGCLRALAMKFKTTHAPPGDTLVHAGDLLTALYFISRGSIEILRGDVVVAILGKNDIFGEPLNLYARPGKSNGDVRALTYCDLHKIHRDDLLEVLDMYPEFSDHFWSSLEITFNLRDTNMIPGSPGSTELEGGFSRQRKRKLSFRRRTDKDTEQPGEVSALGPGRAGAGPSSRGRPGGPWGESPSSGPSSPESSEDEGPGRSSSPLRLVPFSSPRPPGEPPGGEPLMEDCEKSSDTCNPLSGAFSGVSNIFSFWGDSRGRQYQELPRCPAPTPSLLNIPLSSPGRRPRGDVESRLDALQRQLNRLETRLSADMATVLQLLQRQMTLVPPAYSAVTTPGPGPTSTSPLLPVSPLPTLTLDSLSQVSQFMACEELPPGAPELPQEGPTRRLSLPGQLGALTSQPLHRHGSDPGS
row,SMILES,"hERG current change (%, negative = inhibition) at 1uM"
1,Cc1ccccc1NC(=S)NNC(=O)c1ccncc1,-11%
2,CC(=O)CSc1nc2c(c(=O)[nH]c(=O)n2C)n1Cc1ccccc1Cl,14.7%
3,CC(=O)Nc1ccc(C)cc1,7.25%
4,O=C(Cn1c(CN2CCCCC2)nc2ccccc2c1=O)NCc1ccco1,-0.22%
5,CCOC(=O)C(=CNc1cc(C)nn1-c1ccc(C)cc1)C(=O)OCC,-16.2%
6,CCOc1ccc(CN(C(=O)c2ccco2)C2CCS(=O)(=O)C2)cc1 (stereo not shown),14.1%
7,CC(C)(C)c1cc(C(=O)NNc2cc(C(F)(F)F)ccc2Cl)n(Cc2ccccc2)n1,3.89%
8,CC(=O)N1c2ccc(S(=O)(=O)N3CCC(C(=O)NCc4ccc(N(C)C)cc4)CC3)cc2CC1C (stereo not shown),13%
9,Cc1cc(C)nc(N2CCC(C(=O)NCc3ccccc3)CC2)n1,9.61%
10,COc1ccc(C2CC(=O)c3cnc(N4CCN(Cc5ccccc5)CC4)nc3C2)cc1 (stereo not shown),13%
11,CCOC(=O)c1c(C)[nH]c(C(=O)Nc2ccc(NC(C)=O)cc2)c1C,2.49%
12,CSCCC(NC(=O)c1cccc([N+](=O)[O-])c1)C(=O)O (stereo not shown),5.08%
13,O=C(O)CSCC(=O)c1ccccc1,11.7%
14,O=C(NC1CC(=O)N(c2ccccc2)C1)C1CC1 (stereo not shown),3.29%
15,COc1ccc(Cl)cc1NC(=S)NCCSc1ccc(C)cc1,6.53%
16,COc1ccc(Nc2nc(N3CCCCC3)nc(N3CCCCC3)n2)c(OC)c1,10.1%
17,O=C(O)C(Cc1c[nH]c2ccccc12)N1C(=O)C2C3c4ccccc4C(c4ccccc43)C2C1=O (stereo not shown),14%
18,Cc1[nH]c(C)c(S(=O)(=O)NCc2ccc(F)cc2)c1C(=O)N1CCCCC1,11.5%
19,Cn1c(C(=O)N2CCN(c3nc4ccccc4s3)CC2)cc2sccc21,7.74%
20,O=C(Nc1ccon1)c1cccc(S(=O)(=O)N2CCCCCC2)c1,10.5%
21,CCCOc1cccc(C(=O)Nc2ccc(Br)cc2F)c1,-0.976%
22,CC1CN(c2nc3ccccn3c(=O)c2C=O)CC(C)O1 (stereo not shown),10.6%
23,COc1ccc(N(CC(=O)NCc2ccco2)S(=O)(=O)c2ccc(C)cc2)cc1,4.12%
24,Cn1c(NCc2c(O)ccc3ccccc23)nc2ccccc21,10.1%
25,CC(=O)Nc1ccc(/C=N/Nc2nc3ccccc3[nH]2)cc1,9.12%
